Laboratory results as given in the supplement of paper PMC12217912.
The other results are listed elsewhere or left out. The full chains were built here from the parent and the listed change. Inactive controls read about 0.05.

B1: TEV protease; numbered along this chain (parent)
chain: MGESLFKGPRDYNPISSSICHLTNESDGHTTSLYGIGFGPFIITNKHLFRRNNGTLVVQSLHGVFKVKDTTTLQQHLVDGRDMIIIRMPKDFPPFPQKLKFREPQREERICLVTTNFQTKSMSSMVSDTSCTFPSGDGIFWKHWIQTKDGQCGSPLVSTRDGFIVGIHSASNFTNTNNYFTSVPKNFMELLTNQEAQQWVSGWRLNADSVLWGGHKVFMVKPEEPFQPVKEATQL

Variants of: B1
Assay: raw area under fraction-flipped curve 0-4 h after induction (AUC4h, not background-subtracted), DNA-recorder readout of cleavage of the substrate (dimensionless); higher = more cleavage of the substrate by the protease variant
Conditions: temperature: 34 °C; time window: 0-4 h after rhamnose induction
Description: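 In vivo DNA recorder in E. coli TOP10(DE3) ΔrhaA at 34 °C. Each TEVp single-site mutant (parent TEVp 0) is paired with a single-site variant of the 7-mer TEVs (canonical ENLYFQ|S). The substrate sits between flexible linkers in a Bxb1-sfGFP-TEVs-SsrA fusion, so cleavage stabilises Bxb1 and speeds flipping of a recombination array, read by NGS. The value is the raw area under the fraction-flipped curve over 0-4 h after rhamnose induction (AUC4h), with ≥20 reads per time point. It is not background-subtracted; inactive controls average about 0.047.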
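Further: Bxb1 expression induced with 0.2% (w/v) L-rhamnose at OD600 near 0.5, cultures sampled hourly, flipped fraction per protease–substrate barcode pair counted by paired-end Illumina sequencing.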

| Variant | area with substrate ENLYCQS | area with substrate ENLYDQS | area with substrate ENLYGQS | area with substrate ENLYIQS | area with substrate ENLYMQS | area with substrate ENLYNQS | area with substrate ENLYRQS | area with substrate ENLYWQS | area with substrate ENLYYQS | area with substrate ENLYEQS | area with substrate ENLYHQS | area with substrate ENLYKQS | area with substrate ENLYLQS | area with substrate ENLYPQS | area with substrate ENLYQQS | area with substrate ENLYSQS | area with substrate ENLYTQS | area with substrate ENLYVQS |
| --- | --- | --- | --- | --- | --- | --- | --- | --- | --- | --- | --- | --- | --- | --- | --- | --- | --- | --- |
| MGESLFAGPRDYNPISSSICHLTNESDGHTTSLYGIGFGPFIITNKHLFRRNNGTLVVQSLHGVFKVKDTTTLQQHLVDGRDMIIIRMPKDFPPFPQKLKFREPQREERICLVTTNFQTKSMSSMVSDTSCTFPSGDGIFWKHWIQTKDGQCGSPLVSTRDGFIVGIHSASNFTNTNNYFTSVPKNFMELLTNQEAQQWVSGWRLNADSVLWGGHKVFMVKPEEPFQPVKEATQL [K7A] | 0.0623 | 0.0629 | 0.0735 | 0.118 | 0.125 | 0.064 | 0.0565 | 0.113 | 0.0548 | – | – | – | – | – | – | – | – | – |
| MGEPLFKGPRDYNPISSSICHLTNESDGHTTSLYGIGFGPFIITNKHLFRRNNGTLVVQSLHGVFKVKDTTTLQQHLVDGRDMIIIRMPKDFPPFPQKLKFREPQREERICLVTTNFQTKSMSSMVSDTSCTFPSGDGIFWKHWIQTKDGQCGSPLVSTRDGFIVGIHSASNFTNTNNYFTSVPKNFMELLTNQEAQQWVSGWRLNADSVLWGGHKVFMVKPEEPFQPVKEATQL [S4P] | 0.0943 | 0.0486 | 0.0637 | 0.153 | 0.0809 | 0.0628 | – | 0.0749 | 0.0626 | 0.0673 | 0.0566 | 0.0529 | 0.0679 | 0.0809 | 0.0174 | 0.0788 | 0.0856 | 0.108 |
| MGESLFKGPRDYNPISSSICHLTNESDGHTTSLYGIGFGPFIITNKHLFRRNNGTLVVQSLHGVFKVKDTTTLQQHLVDGRDMIIIRMPKDFPPFPQKLNFREPQREERICLVTTNFQTKSMSSMVSDTSCTFPSGDGIFWKHWIQTKDGQCGSPLVSTRDGFIVGIHSASNFTNTNNYFTSVPKNFMELLTNQEAQQWVSGWRLNADSVLWGGHKVFMVKPEEPFQPVKEATQL [K100N] | 0.0659 | 0.0431 | 0.0661 | 0.144 | 0.087 | 0.0578 | – | 0.0312 | 0.0672 | – | – | – | – | 0.0753 | – | – | 0.0773 | 0.12 |
| MGESLFKGPRDYNPISSSICHLTNESDGHTTSLYGIGFGPFIITNKHLFRRNNGTLVVQSLHGVFKVKDTTTLQQHLVDGRDMIIIRMPKDFPPFPQKLWFREPQREERICLVTTNFQTKSMSSMVSDTSCTFPSGDGIFWKHWIQTKDGQCGSPLVSTRDGFIVGIHSASNFTNTNNYFTSVPKNFMELLTNQEAQQWVSGWRLNADSVLWGGHKVFMVKPEEPFQPVKEATQL [K100W] | 0.0859 | – | 0.0689 | 0.133 | 0.0855 | – | – | 0.0822 | – | 0.0684 | – | – | 0.0965 | – | – | 0.0907 | 0.0776 | – |
| MGESLFKGPRDYNPISSSICHLTNESDGHTTSLYGIGFGPFIITNKHLFRRNNGTLVVQSLHGVFKVKDTTTLQQHLVDGRDMIIIRMPIDFPPFPQKLKFREPQREERICLVTTNFQTKSMSSMVSDTSCTFPSGDGIFWKHWIQTKDGQCGSPLVSTRDGFIVGIHSASNFTNTNNYFTSVPKNFMELLTNQEAQQWVSGWRLNADSVLWGGHKVFMVKPEEPFQPVKEATQL [K90I] | 0.0767 | 0.0579 | 0.0641 | 0.126 | – | 0.0647 | – | 0.078 | 0.065 | 0.0614 | 0.0944 | 0.0588 | – | 0.0741 | 0.067 | – | 0.0794 | 0.085 |
| MGESLFKGPRDYNPISSSICHLTNESDGHTTSLYGIGFGPFGITNKHLFRRNNGTLVVQSLHGVFKVKDTTTLQQHLVDGRDMIIIRMPKDFPPFPQKLKFREPQREERICLVTTNFQTKSMSSMVSDTSCTFPSGDGIFWKHWIQTKDGQCGSPLVSTRDGFIVGIHSASNFTNTNNYFTSVPKNFMELLTNQEAQQWVSGWRLNADSVLWGGHKVFMVKPEEPFQPVKEATQL [I42G] | 0.0442 | 0.0504 | 0.0505 | 0.043 | 0.0469 | 0.0451 | 0.033 | 0.0353 | 0.0477 | 0.0531 | 0.0406 | 0.0551 | – | 0.04 | 0.0431 | 0.0425 | – | 0.0475 |
| MGESLFKGPRDYNPISSSICHLTNESDGHTTSLYGIGFGPFIITNKHLFRRNNGTLVVQSLHGVFKVKDTTTLQQHLVDGRDMIIIRMPKDFPPFPQKLKFREPQREERICLVTTNFQTKSMSSMVSDTSCTFPSGDGIFWKHWIQTKDGQCGSPLVSTRDGFIVGIHCASNFTNTNNYFTSVPKNFMELLTNQEAQQWVSGWRLNADSVLWGGHKVFMVKPEEPFQPVKEATQL [S169C] | 0.0753 | 0.0552 | 0.0569 | 0.107 | – | 0.0568 | 0.0513 | 0.0628 | 0.0667 | 0.0582 | 0.0612 | 0.0751 | 0.0762 | 0.072 | 0.0521 | 0.0694 | – | 0.0806 |
| MGESLFKGPRDYNPISSSICHLMNESDGHTTSLYGIGFGPFIITNKHLFRRNNGTLVVQSLHGVFKVKDTTTLQQHLVDGRDMIIIRMPKDFPPFPQKLKFREPQREERICLVTTNFQTKSMSSMVSDTSCTFPSGDGIFWKHWIQTKDGQCGSPLVSTRDGFIVGIHSASNFTNTNNYFTSVPKNFMELLTNQEAQQWVSGWRLNADSVLWGGHKVFMVKPEEPFQPVKEATQL [T23M] | 0.0864 | 0.0521 | – | 0.115 | 0.0852 | 0.0747 | – | 0.0962 | 0.0611 | 0.0613 | 0.0651 | 0.0576 | 0.0653 | 0.0601 | – | 0.0666 | – | 0.0962 |
| MGESLFKGPRDYNPISSSICHLTNESDGHTTSLYGIGFGPFIITNKHLFRRNNGTLVVQSLHGVFKVKDTTTLQQHLADGRDMIIIRMPKDFPPFPQKLKFREPQREERICLVTTNFQTKSMSSMVSDTSCTFPSGDGIFWKHWIQTKDGQCGSPLVSTRDGFIVGIHSASNFTNTNNYFTSVPKNFMELLTNQEAQQWVSGWRLNADSVLWGGHKVFMVKPEEPFQPVKEATQL [V78A] | 0.0645 | 0.0469 | 0.0562 | 0.0874 | 0.0691 | 0.0619 | 0.0634 | 0.0434 | 0.0609 | 0.0575 | 0.0624 | 0.0574 | 0.0584 | 0.0591 | 0.0583 | 0.0509 | 0.0687 | 0.0746 |
